According to the supplement of paper PMC12217912:
This is one part of the list. Sequences were assembled here from the parent chain. Values near 0.05 are background.

B1: TEV protease; numbered along this chain (parent)
chain: MGESLFKGPRDYNPISSSICHLTNESDGHTTSLYGIGFGPFIITNKHLFRRNNGTLVVQSLHGVFKVKDTTTLQQHLVDGRDMIIIRMPKDFPPFPQKLKFREPQREERICLVTTNFQTKSMSSMVSDTSCTFPSGDGIFWKHWIQTKDGQCGSPLVSTRDGFIVGIHSASNFTNTNNYFTSVPKNFMELLTNQEAQQWVSGWRLNADSVLWGGHKVFMVKPEEPFQPVKEATQL

Variants of: B1
Assay: raw area under fraction-flipped curve 0-4 h after induction (AUC4h, not background-subtracted), DNA-recorder readout of cleavage of the substrate (dimensionless); higher = more cleavage of the substrate by the protease variant
Conditions: temperature: 34 °C; time window: 0-4 h after rhamnose induction
Experimental: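 In vivo DNA recorder in E. coli TOP10(DE3) ΔrhaA at 34 °C. Each TEVp single-site mutant (parent TEVp 0) is paired with a single-site variant of the 7-mer TEVs (canonical ENLYFQ|S). The substrate sits between flexible linkers in a Bxb1-sfGFP-TEVs-SsrA fusion, so cleavage stabilises Bxb1 and speeds flipping of a recombination array, read by NGS. The value is the raw area under the fraction-flipped curve over 0-4 h after rhamnose induction (AUC4h), with ≥20 reads per time point. It is not background-subtracted; inactive controls average about 0.047.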
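Also: Bxb1 expression induced with 0.2% (w/v) L-rhamnose at OD600 near 0.5, cultures sampled hourly, flipped fraction per protease–substrate barcode pair counted by paired-end Illumina sequencing.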

Variant	area with substrate EALYFQS	area with substrate ECLYFQS	area with substrate EELYFQS	area with substrate EFLYFQS	area with substrate EGLYFQS	area with substrate EILYFQS	area with substrate EKLYFQS	area with substrate ELLYFQS	area with substrate EMLYFQS	area with substrate EPLYFQS	area with substrate EQLYFQS	area with substrate ERLYFQS	area with substrate ESLYFQS	area with substrate EVLYFQS	area with substrate EWLYFQS	area with substrate EYLYFQS	area with substrate EHLYFQS	area with substrate ETLYFQS	area with substrate EDLYFQS
F41P	0.0438	0.047	0.0596	0.0516	0.048	0.0473	0.0607	0.0534	0.0569	0.0522	0.0437	0.0535	0.0527	0.0419	0.0537	0.0275			
F41A	0.0993	0.082	0.0565	0.0894		0.0811	0.0838		0.0921		0.0802	0.0667	0.0934	0.095	0.0921		0.0829	0.103	
F41G	0.0724		0.0938	0.0679	0.0742	0.0736	0.0736	0.0678	0.0778	0.0877	0.0777	0.0707	0.0609	0.0742	0.0614	0.0772			0.0851
F41Q	0.0907	0.0766	0.0822		0.0939	0.0572	0.0813		0.0515	0.0981	0.0858	0.103	0.0638	0.0841		0.0688	0.0978		
S60C	0.125	0.0846			0.0841	0.0821			0.115	0.13	0.125	0.11	0.122		0.0883	0.11			0.133
G39L	0.0343	0.0305	0.0274			0.0408	0.0476	0.0357	0.0405				0.0436	0.0276				0.104	
G39Y	0.0517	0.0987	0.0324	0.0521	0.0512	0.0416	0.0358	0.0519	0.0464		0.057	0.0319	0.0454	0.0396				0.0544	
G39F	0.0435	0.0403	0.0486	0.0453	0.0525	0.0442	0.0489	0.043	0.0442	0.0377		0.0433	0.048	0.0417		0.0355			
K66M	0.101	0.0983	0.118		0.0944	0.099			0.112			0.0865	0.0866	0.0887	0.0892			0.123	
K66D	0.114		0.105		0.0784				0.115	0.116	0.0982	0.095	0.104	0.0852	0.101	0.101	0.108	0.107	0.124
P40Q	0.0753	0.111	0.144		0.0968	0.124	0.108	0.128	0.122	0.123	0.135	0.108	0.118	0.104			0.105	0.0724	
N53Q	0.108	0.0915	0.107	0.0982		0.0739	0.0724	0.0821	0.101	0.121	0.0885	0.0766	0.0845	0.0829		0.0882	0.095		
N53D	0.134	0.108	0.115	0.157	0.107	0.0794	0.139	0.1	0.114		0.103		0.117	0.107			0.109		
